Experimental data from publication PMC4336329 (PLoS ONE, 2015).
About 2,200 (0.71%) of roughly 310,000 compounds showed an effect of 50% or more. The effect is printed as a negative number. The list shows a part of the results.

These compounds were tested against human ether-à-go-go-related gene (hERG) potassium channel (human, UniProt Q12809) (assay: primary screen, population patch clamp on CHO cells stably expressing hERG).
Sequence of human ether-à-go-go-related gene (hERG) potassium channel (Q12809 whole entry, looked up): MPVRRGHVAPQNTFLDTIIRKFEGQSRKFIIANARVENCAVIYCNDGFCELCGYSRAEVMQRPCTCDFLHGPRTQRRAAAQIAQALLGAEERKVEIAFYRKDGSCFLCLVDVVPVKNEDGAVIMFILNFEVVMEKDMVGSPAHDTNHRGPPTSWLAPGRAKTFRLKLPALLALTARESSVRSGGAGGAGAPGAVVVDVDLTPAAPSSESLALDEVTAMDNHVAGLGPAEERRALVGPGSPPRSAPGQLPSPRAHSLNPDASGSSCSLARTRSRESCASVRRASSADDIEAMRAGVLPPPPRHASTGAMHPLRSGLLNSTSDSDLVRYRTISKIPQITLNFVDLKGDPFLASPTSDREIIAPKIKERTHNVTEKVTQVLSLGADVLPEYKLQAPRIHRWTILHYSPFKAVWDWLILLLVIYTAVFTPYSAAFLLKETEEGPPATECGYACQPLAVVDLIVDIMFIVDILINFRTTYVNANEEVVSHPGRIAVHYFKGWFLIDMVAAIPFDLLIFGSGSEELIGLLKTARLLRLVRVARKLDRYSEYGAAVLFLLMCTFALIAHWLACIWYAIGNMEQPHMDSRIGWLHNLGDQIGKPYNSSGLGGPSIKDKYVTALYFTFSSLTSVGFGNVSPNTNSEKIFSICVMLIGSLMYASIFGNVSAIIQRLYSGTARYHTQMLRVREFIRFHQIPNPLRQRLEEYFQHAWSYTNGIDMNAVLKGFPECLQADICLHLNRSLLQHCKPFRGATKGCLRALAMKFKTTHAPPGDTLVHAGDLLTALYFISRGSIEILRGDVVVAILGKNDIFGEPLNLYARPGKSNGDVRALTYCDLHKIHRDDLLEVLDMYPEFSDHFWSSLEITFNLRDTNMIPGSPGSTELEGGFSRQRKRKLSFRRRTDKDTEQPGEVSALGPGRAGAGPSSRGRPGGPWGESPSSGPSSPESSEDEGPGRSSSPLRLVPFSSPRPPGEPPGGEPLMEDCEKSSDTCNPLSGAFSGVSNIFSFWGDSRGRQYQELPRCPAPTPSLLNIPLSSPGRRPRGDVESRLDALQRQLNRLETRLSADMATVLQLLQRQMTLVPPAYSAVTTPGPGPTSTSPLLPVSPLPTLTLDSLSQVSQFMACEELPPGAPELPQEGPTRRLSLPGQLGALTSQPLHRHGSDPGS

Compound | hERG current change (%, negative = inhibition) at 1uM [%]
O=c1c2ccccc2nc(SCc2ccccc2)n1CC1CCCO1 (centres unmarked) | 7.33
CC(C)c1ccc(-n2cccc2/C=C2/C(=N)N3C=CSC3=NC2=O)cc1 | 9.02
CCOC(=O)c1c(-c2ccccc2)csc1NC(=O)CSc1nc(C)cc(C)n1 | 5.61
CCc1ccc(NC(=O)CCNC(=O)N2C[C@H]3C[C@@H](C2)c2cccc(=O)n2C3)cc1 | -0.968
COc1ccc([C@H]2CC(=O)C=C(c3ccc(C)c(F)c3)C2)cc1 | -4.05
CC(C)CC(=O)NNC(=S)NCc1ccco1 | 8.16
Cc1cc(C(C)(C)C)cc(C)c1Cn1c2[n+](c3ccc(C(F)(F)F)cc31)CCCCC2.[Cl-] | -21.2
COc1ccc(N(CC(=O)N/N=C/c2cccs2)S(=O)(=O)c2ccc(OC)c(OC)c2)cc1 | -11
COC(=O)C1=C[C@@H](C(=O)OC)[C@@H]2C3=C(C(=O)[C@]2(C)NC(=O)c2ccccc2)[C@H](C)n2c(=O)n(-c4ccccc4)c(=O)n2[C@@H]3C1 | 8.51
CCc1cc(=O)oc2cc(OC(C)C(=O)NCC3CCC(C(=O)O)CC3)c(Cl)cc12 (centres unmarked) | 18.4
O=C(Nc1ccccn1)c1ccc(S(=O)(=O)N2CCCC2)cc1 | 11.6
O=C(Nc1nc2nccc(-c3ccccc3)n2n1)C(Cl)(Cl)Cl | 8.77
C/C(=N\NC(=O)c1ccccc1)c1cccc(Br)c1 | 2.17
CCCCN(C)Cc1c(C)[nH]c2ccc(OCC)cc2c1=O | -11.1
CCOC(=O)Cc1cc(=O)n2[nH]c(-c3ccc(C)cc3)cc2n1 | 11.7
O=C(N/N=C/c1ccc([N+](=O)[O-])cc1)c1ccc(COc2ccccc2-c2ccccc2)cc1 | 0.479
O=C1CN(Cc2ccccc2)C(=NCc2ccco2)S1 | 0.38
COc1ccc(NC(=O)CSCC(=O)Nc2cc(Cl)ccc2N2CCOCC2)cc1 | 15.1
CC(C)N(C(=O)CO/N=C/c1cccc([N+](=O)[O-])c1)C(C)C | 6.85
CC(C)(c1ccccc1)c1ccc(OCCCNCCO)cc1.O=C(O)C(=O)O | 6.74
CCOC(=O)C1CCN(C(=O)c2cccc(S(=O)(=O)NCc3ccccc3)c2)CC1 | 3.25
COc1cccc(Nc2nc3cc(OC)ccc3cc2C#N)c1 | 12.5

Compound | hERG current change (%, negative = inhibition) at 1uM [%]
COCCOC(=O)c1c(C)nc(SCC(=O)Nc2ccc(OC)cc2)c(C#N)c1-c1ccco1 | -4
O=C(Cn1c(=O)cnc2ccccc21)NC1CCC(O)CC1 (centres unmarked) | 5.49
Cc1nn(Cc2ccc(C(=O)Nc3ccc(C(=O)OC(C)C)cc3)o2)c(C)c1Cl | 13.1
O=C(Nc1ccccc1-c1nnc(SCc2ccc(Cl)cc2)o1)c1ccccc1 | 12.5
COc1ccccc1NC(=O)c1c(O)c2ccccc2[nH]c1=O | 8.85
COC(=O)CC1Oc2ccc(C)cc2NC1=O (centres unmarked) | 7.15
O=C(NC(=S)NNC(=O)c1cc2ccccc2cc1O)c1ccco1 | 4.07
c1cncc(-c2nc3cc4ccccc4cc3[nH]2)c1 | 10
CC[C@]1(c2ccccc2OC)C(=O)N(C(=O)OC)N1C(=O)OC | 10.9
CCOC(=O)[C@@H]1[C@H]2COc3ccc(Br)cc3[C@@H]2N2C(=O)N(c3ccc(C)cc3)C(=O)[C@]12C | 6.97
Cc1ccc(/C=N\NC(=O)CCc2n[nH]c(=O)[nH]c2=O)o1 | 10.9
Cc1noc(C)c1S(=O)(=O)Nc1ccc(C(=O)N2CCN(c3ccc(Cl)cc3)CC2)cc1 | 13.6
O=S(=O)(Nc1ccc(N=Nc2ccc(O)c3ccccc23)cc1)c1ccccc1 | 5.3
Cc1c(NC(=O)c2c(F)c(F)c(F)c(F)c2F)c(=O)n(-c2ccccc2)n1C | 19
COc1ccc(C(=O)CSc2nnc(Cn3cnc4ccccc43)o2)cc1 | 15.3
Cc1c(OCc2ccc(C(=O)O)o2)ccc2c3c(c(=O)oc12)CCC3 | 7.74
CCSc1cc(N2CCCC2)nc(-c2ccccc2Cl)n1 | 7.41
COCCCn1c(=O)c2sccc2n(Cc2ccccc2)c1=O | 11.8
Cn1cc(Cl)c(C(=O)N/N=C/c2ccc3c4c(cccc24)CC3)n1 | 19.1
Cc1ccc2nc(C)/c(=N\O)c(C)nc2c1 | 0.212
Cc1ccc(-c2[nH]c(-c3ccccc3)nc2SCC(=O)NCC2CCCO2)cc1 (centres unmarked) | 12.6
COc1ccc(CCN2CC(C(=O)NCCc3ccc(C)cc3)CC2=O)cc1OC (centres unmarked) | 8.06
